The results in this text go back to the supplement of paper PMC11417369.

Some of the results follow.

In the experiment the test system is PfSIP2 AP2 domain 1 (GST-tagged). The experiment in a line: gcPBM binding intensity (ln(normalized median fluorescence intensity)); higher = stronger DNA binding. Put shortly: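 Binding intensity values are the highest Masliner-normalised natural-log median intensity among replicate spots of either probe orientation. The binding step lasted 1 h in 1× PBS with 1% milk, 0.2 mg/ml BSA, 0.5% salmon testes DNA and 0.03% Triton X-100, using GST-tagged P. falciparum DNA-binding domains expressed in E. coli on an Agilent 4 × 180k array of primer-extended double-stranded 36-bp intergenic genomic probes plus negative controls. Alexa488 anti-GST antibody and a 488 nm scan detected bound protein.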
With “TATATATATATGTGTACACATGTCGCATTTTTTTAT [CACACA_site4648]”, the “gcPBM binding intensity (ln)” value amounted to 9.08.
For “GATATTATAAAATAAAAATAAATCATTTCTATTCAT [CACACA_negctrl_site334]” the value was 6.53; for “TTATGTGTATAGGTTTGTACATAAAATGATGTATAG [XGTACX_site1401]”, 7.04.
For “TCATGGAATATTTAAAGTACAAAAAGTGTTCTTTAC [XGTACX_site715]” the value was 6.95.
For “TAGTCATATATATATGTACACACATATATATATTTA [CACACA_site8413]” the value was 7.03; for “ATATATTATGGGTGTGCACACAATATTTATATGTTC [CACACA_site2270]”, 8.64; for “TTATAATAAATATATAAAAAAAAAAAAAAAAAAAAA [CACACA_negctrl_site1639]”, 7.19.
In the case of “TGATAGCACCTTATATGTACATATAATATATTATTA [XGTACX_site837]”, the “gcPBM binding intensity (ln)” value stood at 8.88.
For “TTTTCTTATAAATGAAGTACAAAAAAAAAATATATA [XGTACX_site1352]” the value was 7.13; for “ACATATATGGAGCTTATACACACTTTTATATTTTAA [CACACA_site3854]”, 6.91; for “TTATCATATAATTATTGTACTAAAAAAAAAGCGAGT [XGTACX_site3086]”, 7.87.
Then “TTTTAAATATGCCATACACACTACTCTATAATAAAT [CACACA_site6987]”, with 7.01; and “TAAAAGTTCACCTGTACACACATATAAATATGTACA [CACACA_site6901]”, with 6.92.
For “CGTTTTCTATATCATTGTACATATTCATGTGTAAAT [XGTACX_site2741]” the value was 7.13; for “AACAGACGAAGACACACACACATATATATATATATA [CACACA_site1020]”, 9.72; for “ATTAATAAATTCAATTGTACTTGTTTATACATAAAA [XGTACX_site3733]”, 6.95.
Consider “TTGTTTAAGTCACGAACACACATATATCATCAATTT [CACACA_site986]”, for which the “gcPBM binding intensity (ln)” value came out at 6.93.
For “AAAATTAACCGTAACACACACACATATAAATATGTA [CACACA_site7791]” the value was 7.14.
Then “TTATTTTATTTTTGTGCACACTGATAAATTGAAAAG [CACACA_site2949]”, with 10.2; and “TTATGGTGCAACATTATGCACACCGTTAAATAACTA [CACACA_site3846]”, with 11.9; and “ATTTATTTTGTTGTTGTTTTTATTTGATTGTTTTAT [CACACA_negctrl_site1275]”, with 6.86.
Turning to “GTTTGAATGGCGCACTGTACACATATATACATATAG [XGTACX_site8619]”, the “gcPBM binding intensity (ln)” value stood at 8.38.
For “ATTTATGAAAAATGTACACACATCAAATGCTTATAT [CACACA_site4068]” the value was 6.99; for “ACAAAATTATGTAGATGTACAGACATAGAAAGAGAT [XGTACX_site3096]”, 7.48; for “ATAACAAAAAAAAAGGTGCTACAAAATGAATAAAAA [GTGCAC_site9659]”, 8.84.
Then “ATATTTTATTTTAATACACACAAGTTATATAACCAC [CACACA_site6508]”, with 7.2; and “TACATATATATATATGTACACACATTAATAAAAAAA [CACACA_site9058]”, with 7.46.
For “AATATAAATAATTATACACACTTAATATATATATAC [CACACA_site5533]” the value was 7.1; for “ATATTTAGGAAAAATAGTACACATTTAAATAATAAT [XGTACX_site7989]”, 7.01; for “TAGGTGCCTTTTTTCACACACATGTCAACTAAATAT [CACACA_site2656]”, 8.19.
As to “AAATATATATATATATATATAAATATATACATATAT [TGCATGCA_negctrl_site517]”, the “gcPBM binding intensity (ln)” value is 7.17.
For “CTTTAAATTAATAAAAGTACATTATTTATATATTTT [XGTACX_site4808]” the value was 7.05; for “AAAATGTCCCGTAGAAAATAAATTTATTACGCAATA [CACACA_negctrl_site1564]”, 6.84; for “ATTTATGTTAATAAGTGTACAATAAATTTTTTTTAT [XGTACX_site7658]”, 6.94.
As for “AACATATATAAATACACACACATATATATATGAAAT [CACACA_site4312]”, the “gcPBM binding intensity (ln)” value is 7.05.
Then “TATTAGCATGTTATTACACACAATATAAGATATATA [CACACA_site6775]”, with 6.91; and “ACATTTTGTGTTTTAGCACACAATTTTTCAGAATAT [CACACA_site2961]”, with 6.91.
Then “AATATATATTTATAAACACACACCAAAATTTGTGCT [CACACA_site3091]”, with 6.96.
For “ATATTATAATATTTATGTACATATATATAATATATA [XGTACX_site1633]” the value was 7.11; for “TATATATGTATCATTACACACATGTATACTTATTTG [CACACA_site4138]”, 6.9.
Consider “TGTATAAATATATATACACACATATTTATATATATA [CACACA_site755]”, for which the “gcPBM binding intensity (ln)” value worked out at 7.74.
Then “TACATTTGTATAAATAGTACGCGAAAACAAAAAAAA [XGTACX_site6246]”, with 7; and “ATATATGTGCCCATATATATATATATAAATATATGT [GTGCAC_negctrl_site226]”, with 7.52; and “TAAAAAAAAACAGAAACACACATTATTCATATATAT [CACACA_site2049]”, with 6.86.
As to “AAAATATTTATGTATGCATGTTGTAATATTTCTTTA [TGCATGCA_site296]”, the “gcPBM binding intensity (ln)” value was determined as 7.04.
For “ATTTCCCCTTTTTATTGTACATTTTTATTTGTTACT [XGTACX_site4845]” the value was 7.17.
Then “TATGCTATATATTTAGTGCATATATATAACTTTTAT [GTGCAC_site9902]”, with 8.56; and “AAAATTATATATTTTAGTACATAAAATATTGACATA [XGTACX_site2581]”, with 7.04; and “ATGTAATGTTATGTTATGTTTTTTTTTTTTTTGTGT [CACACA_negctrl_site1264]”, with 7.03.
For “TTTTAAACAGGACACACACACATATATATATATATA [CACACA_site4664]” the value was 9.44; for “GGAATATGTATATTTTGTACGTATACATTTTTTGGG [XGTACX_site7681]”, 7.02.
Turning to “GTTATTGTAAAAAGATTACACACGTTCTATATACTT [CACACA_site2473]”, the “gcPBM binding intensity (ln)” value stood at 7.15.
Then “TTTATACAAAAAAACAAAATCAAACAAAAAAAAAAA [CACACA_negctrl_site252]”, with 6.96.
“GATATATTTTATATATGTACATACAGTGGTAAATAT [XGTACX_site1324]”: the “gcPBM binding intensity (ln)” value worked out at 7.1.
Then “TTTTCTACATCTTGTTGTACGAAAAATAAAAAAAAT [XGTACX_site4620]”, with 7.25; and “AGTACGTAAATTATAATACACACTATAGGATATTCT [CACACA_site2559]”, with 7.06.
